Like-named read-outs stand apart in the source and are kept apart here.

Assay in all cases: SPR (Biacore 8K), VHH-Fc captured, TfR apical domain as analyte
For orientation: SPR reads the build-up and loss of mass on a sensor chip optically.

In assay [1] the target is T1, human transferrin receptor apical domain (human, UniProt P02786 198-378, limits assumed).
T1 construct: domain: apical domain; Soluble analyte in SPR; also called huTfR-AD; human TfR apical domain
How it is done:
(§1) A set of experiments was performed to assess the binding affinities of VHH-Fc fusions for human and cyno TfR apical domain. In these experiments, binding affinities were determined by surface plasmon resonance using a Biacore™ 8K instrument in 1×HBS-EP+running buffer (GE Healthcare Cat. No. BR100669). Biacore™ Series S CM5 sensor chips were treated with a Human antibody capture kit (GE Healthcare, Cat. No. BR100839). VHH-Fc fusions were captured on each flow cell and serial 3-fold dilutions of human and cyno TfR apical domain (300, 100, 33, 11, 3.7, and 0 nM) were injected at a flow rate of 30 μL/min using the multi cycle kinetics method. Each sample was analyzed with a 270-second association and a 10-minute dissociation. Some VHH-Fc fusions were measured with serial 3-fold dilutions of human and cyno TfR apical domain (100, 33, 11, and 0 nM) with a 300-second association and 10-minute dissociation. After each cycle, the chip was regenerated using 3 M magnesium chloride for 30 seconds at 50 μL/minute. Binding response was corrected by subtracting the RU from a reference flow cell. A 1:1 Langmuir model of simultaneous fitting of kₒₙ and koff was used for kinetics analysis using Biacore™ 8K Evaluation Software.
(§2) The variable domains containing the mutation were sub-cloned onto the corresponding constant heavy domains of human IgG1. The heavy chain plasmids were transfected in Expi293 cells. Supernatants were collected after five days and monoclonal antibodies were purified by protein A chromatography. In order to assess affinities of the B07 mutants for human and cyno TfR apical domain, binding affinities were determined by surface plasmon resonance using a Biacore™ 8K instrument as described herein.

For assay [2], the target named is T2, cynomolgus transferrin receptor apical domain (cynomolgus, UniProt A0A2K5X958 198-378).
T2 construct: domain: apical domain; Soluble analyte in SPR; also called cyTfR-AD; cyno TfR apical domain
T2 sequence (A0A2K5X958 entry or part of it): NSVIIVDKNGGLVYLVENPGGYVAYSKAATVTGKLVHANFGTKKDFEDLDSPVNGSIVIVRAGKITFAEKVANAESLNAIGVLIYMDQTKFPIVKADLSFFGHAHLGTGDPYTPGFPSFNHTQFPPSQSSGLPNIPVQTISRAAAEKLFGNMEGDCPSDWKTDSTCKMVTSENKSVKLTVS
How it is done:
as §1, §2

For assay [3], the target named is T1, human transferrin receptor apical domain. How it is done: as §1
T1 sequence (P02786 198-378 limits assumed): as the sequence (A0A2K5X958 entry or part of it) above, with G11R, D50Y, S51T, K95N, D97E, Q128R, K167R, N173S, S175N counted along it
This is another data set of the same source.

Assay [4] deals with T2, cynomolgus transferrin receptor apical …. How it is done: as §1
The source holds these as a separate data set.

B1: B07v1 (Fc fusion)
chain: QVQLVESGGGLVQTGGSLRLSCTASGFTSDTGGMGWFRQAAGKERDFVSAITWSGRHTLYADSVKGRFNISRDKGKNTVFLQMNSLKPEDTAVYYCALDVVGIGIEVQTYDYWGQGTQVTVSSGGGGAS[sequence of human IgG1 Fc with changes omitted]
notes: B07 L27F (Kabat) on human IgG1 Fc; also called B07 L27F
In general, Kd refers to the concentration at which binding is half-saturated. A higher Kd goes with weaker binding. Turning to B1, the equilibrium dissociation constant (Kd) in assay [1] is 1 nM; in assay [2], 2.8 nM.

B2: hB07v8 (Fc fusion)
chain: EVQLVESGGGLVQPGGSLRLSCAASGLTSDTGGMGWFRQAPGKEREFVSAITWSGRHTLYADSVKGRFTISRDKSKNTVYLQMNSLRAEDTAVYYCALDVVGIGIEVQTYDYWGQGTLVTVSSGGGGAS[sequence of human IgG1 Fc with changes omitted]
notes: Humanized B07 VHH (hu VH3; 37F, 44E, 45R, 47F, 73K, 78V) fused to human IgG1 Fc
Take B2: the Kd in assay [3] turned out to be 0.7 nM; in assay [4], 1.9 nM.

B3: B07v29 (Fc fusion)
chain: QVQLVESGGGLVQTGGSLRLSCTASGLTSDTGGMGWFRQAAGKERDFVSAITWSGRATLYADSVKGRFNISRDKGKNTVFLQMNSLKPEDTAVYYCALDVVGIGIEVQTYDYWGQGTQVTVSSGGGGAS[sequence of human IgG1 Fc with changes omitted]
notes: B07 H56A (Kabat) on human IgG1 Fc; also called B07 H56A
Consider B3, for which the Kd in assay [1] came out at 5.1 nM; in assay [2] it was 11 nM.

B4: B07v2 (Fc fusion)
chain: QVQLVESGGGLVQTGGSLRLSCTASGLTFDTGGMGWFRQAAGKERDFVSAITWSGRHTLYADSVKGRFNISRDKGKNTVFLQMNSLKPEDTAVYYCALDVVGIGIEVQTYDYWGQGTQVTVSSGGGGAS[sequence of human IgG1 Fc with changes omitted]
notes: B07 S29F (Kabat) on human IgG1 Fc; also called B07 S29F
For B4, the results for the Kd in assay [1] and in assay [2] were 0.9 nM and 2.5 nM, respectively.

B5: B07v28 (Fc fusion)
chain: QVQLVESGGGLVQTGGSLRLSCTASGLTSDTGGMGWFRQAAGKERDFVSAITWSARHTLYADSVKGRFNISRDKGKNTVFLQMNSLKPEDTAVYYCALDVVGIGIEVQTYDYWGQGTQVTVSSGGGGAS[sequence of human IgG1 Fc with changes omitted]
notes: B07 G54A (Kabat) on human IgG1 Fc; also called B07 G54A
Turning to B5, the Kd is 1 nM in assay [1] and 2.3 nM in assay [2].

B6: B07v12 (Fc fusion)
chain: QVQLVESGGGLVQTGGSLRLSCTASGLTSDTGGMGWFRQAAGKERDFVSAITWSGSHTLYADSVKGRFNISRDKGKNTVFLQMNSLKPEDTAVYYCALDVVGIGIEVQTYDYWGQGTQVTVSSGGGGAS[sequence of human IgG1 Fc with changes omitted]
notes: B07 R55S (Kabat) on human IgG1 Fc; also called B07 R55S
As for B6, the results for the Kd in assay [1] and in assay [2] were 8.3 nM and 25 nM, respectively.

B7: B07v27 (Fc fusion)
chain: QVQLVESGGGLVQTGGSLRLSCTASGLTSDTGGMGWFRQAAGKERDFVSAITWSGRHTLYADSVKGRFNISRDKGKNTVFLQMNSLKPEDTAVYYCALDVVGIGIEVQTFDYWGQGTQVTVSSGGGGAS[sequence of human IgG1 Fc with changes omitted]
notes: B07 Y100fF (Kabat) on human IgG1 Fc; also called B07 Y100fF
Consider B7, for which the Kd in assay [1] was determined as 2.8 nM; in assay [2] it was 6.7 nM.

B8: B07v11 (Fc fusion)
chain: QVQLVESGGGLVQTGGSLRLSCTASGLTSDTGGMGWFRQAAGKERDFVSAITWNGRHTLYADSVKGRFNISRDKGKNTVFLQMNSLKPEDTAVYYCALDVVGIGIEVQTYDYWGQGTQVTVSSGGGGAS[sequence of human IgG1 Fc with changes omitted]
notes: B07 S53N (Kabat) on human IgG1 Fc; also called B07 S53N
As to B8, the dissociation constant (Kd) in assay [1] turned out to be 21 nM; in assay [2], 53 nM.

B9: B07v10 (Fc fusion)
chain: QVQLVESGGGLVQTGGSLRLSCTASGLTSDTGGMGWFRQAAGKERDFVSAITGSGRHTLYADSVKGRFNISRDKGKNTVFLQMNSLKPEDTAVYYCALDVVGIGIEVQTYDYWGQGTQVTVSSGGGGAS[sequence of human IgG1 Fc with changes omitted]
notes: B07 W52aG (Kabat) on human IgG1 Fc; also called B07 W52aG
Regarding B9, the Kd was found to be 3.6 nM in assay [1] and 11 nM in assay [2].

B10: B07v8 (Fc fusion)
chain: QVQLVESGGGLVQTGGSLRLSCTASGLTSDTGGMGWFRQAAGKERDFVSAISWSGRHTLYADSVKGRFNISRDKGKNTVFLQMNSLKPEDTAVYYCALDVVGIGIEVQTYDYWGQGTQVTVSSGGGGAS[sequence of human IgG1 Fc with changes omitted]
notes: B07 T52S (Kabat) on human IgG1 Fc; also called B07 T52S
B10: the Kd amounted to 3.2 nM in assay [1] and 8.9 nM in assay [2].

B11: B07v17 (Fc fusion)
chain: QVQLVESGGGLVQTGGSLRLSCTASGLTSDTGGMGWFRQAAGKERDFVSAITWSGRHTLYADSVKGRFNISRDKGKNTVFLQMNSLKPEDTAVYYCALDAVGIGIEVQTYDYWGQGTQVTVSSGGGGAS[sequence of human IgG1 Fc with changes omitted]
notes: B07 V96A (Kabat) on human IgG1 Fc; also called B07 V96A
Regarding B11, the Kd in assay [1] amounted to 1 nM; in assay [2], 2.9 nM.

B12: B07v6 (Fc fusion)
chain: QVQLVESGGGLVQTGGSLRLSCTASGLTSDTGAMGWFRQAAGKERDFVSAITWSGRHTLYADSVKGRFNISRDKGKNTVFLQMNSLKPEDTAVYYCALDVVGIGIEVQTYDYWGQGTQVTVSSGGGGAS[sequence of human IgG1 Fc with changes omitted]
notes: B07 G33A (Kabat) on human IgG1 Fc; also called B07 G33A
In the case of B12, the Kd is 36 nM in assay [1] and 120 nM in assay [2].

B13: B07v23 (Fc fusion)
chain: QVQLVESGGGLVQTGGSLRLSCTASGLTSDTGGMGWFRQAAGKERDFVSAITWSGRHTLYADSVKGRFNISRDKGKNTVFLQMNSLKPEDTAVYYCALDVVGIGIAVQTYDYWGQGTQVTVSSGGGGAS[sequence of human IgG1 Fc with changes omitted]
notes: B07 E100bA (Kabat) on human IgG1 Fc; also called B07 E100bA
For B13, the Kd stood at 2 nM in assay [1] and 5 nM in assay [2].

B14: B07v22 (Fc fusion)
chain: QVQLVESGGGLVQTGGSLRLSCTASGLTSDTGGMGWFRQAAGKERDFVSAITWSGRHTLYADSVKGRFNISRDKGKNTVFLQMNSLKPEDTAVYYCALDVVGIGAEVQTYDYWGQGTQVTVSSGGGGAS[sequence of human IgG1 Fc with changes omitted]
notes: B07 I100aA (Kabat) on human IgG1 Fc; also called B07 I100aA
With B14, the Kd in assay [1] worked out at 8.9 nM; in assay [2], 28 nM.

B15: B07v25 (Fc fusion)
chain: QVQLVESGGGLVQTGGSLRLSCTASGLTSDTGGMGWFRQAAGKERDFVSAITWSGRHTLYADSVKGRFNISRDKGKNTVFLQMNSLKPEDTAVYYCALDVVGIGIEVATYDYWGQGTQVTVSSGGGGAS[sequence of human IgG1 Fc with changes omitted]
notes: B07 Q100dA (Kabat) on human IgG1 Fc; also called B07 Q100dA
In the case of B15, the Kd in assay [1] was 1.1 nM; in assay [2] it was 2.8 nM.

B16: B07v9 (Fc fusion)
chain: QVQLVESGGGLVQTGGSLRLSCTASGLTSDTGGMGWFRQAAGKERDFVSAITSSGRHTLYADSVKGRFNISRDKGKNTVFLQMNSLKPEDTAVYYCALDVVGIGIEVQTYDYWGQGTQVTVSSGGGGAS[sequence of human IgG1 Fc with changes omitted]
notes: B07 W52aS (Kabat) on human IgG1 Fc; also called B07 W52aS
Take B16: the Kd is 2.7 nM in assay [1] and 8.7 nM in assay [2].

B17: B07v24 (Fc fusion)
chain: QVQLVESGGGLVQTGGSLRLSCTASGLTSDTGGMGWFRQAAGKERDFVSAITWSGRHTLYADSVKGRFNISRDKGKNTVFLQMNSLKPEDTAVYYCALDVVGIGIEAQTYDYWGQGTQVTVSSGGGGAS[sequence of human IgG1 Fc with changes omitted]
notes: B07 V100cA (Kabat) on human IgG1 Fc; also called B07 V100cA
B17: the Kd in assay [1] came to 1 nM; in assay [2], 2 nM.

B18: B07v4 (Fc fusion)
chain: QVQLVESGGGLVQTGGSLRLSCTASGLTSETGGMGWFRQAAGKERDFVSAITWSGRHTLYADSVKGRFNISRDKGKNTVFLQMNSLKPEDTAVYYCALDVVGIGIEVQTYDYWGQGTQVTVSSGGGGAS[sequence of human IgG1 Fc with changes omitted]
notes: B07 D30E (Kabat) on human IgG1 Fc; also called B07 D30E
B18: the Kd is 0.8 nM in assay [1] and 2.1 nM in assay [2].

B19: hB07v7 (Fc fusion)
chain: EVQLVESGGGLVQPGGSLRLSCAASGLTSDTGGMGWFRQAPGKEREFVSAITWSGRHTLYADSVKGRFTISRDNSKNTVYLQMNSLRAEDTAVYYCALDVVGIGIEVQTYDYWGQGTLVTVSSGGGGAS[sequence of human IgG1 Fc with changes omitted]
notes: Humanized B07 VHH (hu VH3; 37F, 44E, 45R, 47F, 78V) fused to human IgG1 Fc
Take B19: the Kd in assay [3] is 1 nM; in assay [4], 2.8 nM.

Source of the values: patent publication US20250333528A1 (DENALI THERAPEUTICS, published 2025).
